In all, about 4,500 sequences were measured (“median log2 fold change of GCK-ALFA target abundance (FLAG IP / Myc IP barcode read proportion)”: median about 0.078, lowest 2% from about -0.6 on). The list shows a part of the results.
B1: GBRAP_160_4860 (protein)
chain: SEKLKRALEIIEKAREEALALIDESPVSQHAAFARAVAGDALLELIEEGLINEELEEELDKIIDKLEAELKAGADASTEEHKALVEKAFEEMKKAIKELS
B2: GBRAP_139_3744 (protein)
chain: AAAEAVAARARALVAALEEDREAALRALAELLASLDEELREVAARAIAEALLEKDYETAERILDELARLLREEHGDEDGAEIVEAEKNRTLALIAVREEE
B3: GBRAP_160_4862 (protein)
chain: SEKLEKALKILEEARDRALAAIDEAPASQRAAIADAEMGEAIMELIEEGLLNDELEEKLNEIRDELRAELKANADASVEEHKAMVEKAFKKMEEVIKELM
B4: GBRAP_166_4878 (protein)
chain: MKEEIKKEVEEAVKKFEEEIKKANKEEQFELLIELAEKLAEAKKKGLDDEDLLEAVRRVLKAVKEVGGSPRVAAGIIENEVEFDEELREKLRKIVEEVEK
B5: GBRAP_128_3604 (protein)
chain: SVEEAKERAKEALEKIKNSNLEEAKKIAKELAEWLLTLSLEEVKAAVETIKELAPELSEDKLLILQDALHEAAKKATPEKQEVLLDALGVLGEEAYEKTE
B6: GBRAP_83_6953 (protein)
chain: KEKLVVAANDDNVEEAVKIAADLEKTGKYEVTLEFIGTVEAAEKLIEEMKKAWEEGVKIDVDILLEGATEEEVEEVKKKMEKAAKEAGADIKVNVYALPK
B7: GBRAP_128_3462 (protein)
chain: SVEEAVAWAEKTLKEIEKADLEEARKLFEELAERLATLSLEEVEAVVEVIEKHLPKLTAEKLEILAEVLAEARPRFDPEKRALVADVESDALLLAEELEE
B8: GBRAP_78_6603 (protein)
chain: EVEELLDKAIEELDKAVELTKQLPEDVRNEVLGLLVDALSYLLEAFEDKPDLENLEKALESAKEALKLVETIDTEEAKELKKEITKAIELLEKAIKLLKE
B9: GBRAP_160_4373 (protein)
chain: SEELEKLAKEIKELKKEFKEEAKDLSPEEARTLAIGVLSEVAALVFENEAVSEEVEDKIMKIIDEAIKKIRENEDASVEEIVEITEKALEEIIKLIEEEA
B10: GBRAP_184_5064 (protein)
chain: KIYEETIEVTNLEEAKEKMKELKEKIKNFKGDLIVHLKLPEFNKEIVKAILDELAEIKKAGYAKNITLGIDADTTEEEVDFLISTADEKGINVVVALREE
B11: GBRAP_11_2682 (protein)
chain: RKEALERAAELAERAAELAERLLEEGVDNEELLEELRRALEELRRLVKEHLDEAHRTLVEIAEEELEEALADPENAAAHIERLLAAARVLRYNLEEELEE
B12: GBRAP_35_5572 (protein)
chain: ETLEETTEMIIATIEDLTLAVEDMPLEDAVAAANSLVDTAEELVEEVKDNPELLKKLAEALKKLLEALEKYYGDSEAAKEAAAKVKKVIEKAEKLAKEAE
B13: GBRAP_160_4306 (protein)
chain: KEEYEKLKKEIKEIAEEAIKMLEGQSAEERKTIVKVALGEIRLLVDESPAISDELEEEIDKIADEAEEYLDANPDLTEEEVKELLKEAVEKILKLIEEHS
B14: GBRAP_11_2845 (protein)
chain: KKEKLKEIAEQADKVIALLDELIAAGTDDEELWKKLEEQLKKLQELVEKYLDESEKELAKLAKEELEEAKADPANAEQHLNNAKAFVSTLQGLVLLEIEE
B15: GBRAP_14_3841 (protein)
chain: SEELRRLLLEVVRRTVEAIRELAPEEYEEKVEEIERRLEAAVDEGLKTGDLDAAEAALIETAEATVREEFADLPETERAALIAEAVDELIEGLEEVEEKL
B16: GBRAP_95_7030 (protein)
chain: EDDRLAAESLVEVLETYIDLGDEEKAREAAERLVKLMKEEGFPELPKGISLEAAKIIVEKAIETLNEEDAEKLFEVVLKALEKEEDKEELRKHYEELKKK
B17: GBRAP_160_4057 (protein)
chain: SEKKEELKRLVREAEERTLEVIDEEGVEAARVVAAGEFGEVIMEAASDPEASDELVDRLAEIRDRLVAELAAAADASKEEQKEIVRRAAEEAIRAIEELY
B18: GBRAP_125_3139 (protein)
chain: MKAELLALAEALARALGYSEEEIAELRRLGEAHDPAQTIIAILLAEGFEELAELAREVLPKLTPEEIAELRALAESLRDKSREELRAALLAKLKELKAKQ
B19: GBRAP_14_3849 (protein)
chain: VEKLVEAVKKTAESLKKFAEEVLPEHAEEVKKKIDELAEKLIEKIKKEKLNKEEVEELADEFAEELGKYLKEKGYASDTEIAAFKAHVLSDILLELEKIE
B20: GBRAP_11_2815 (protein)
chain: MKEETKKIIELAERAAELAREYLEEAPGDEELLRELLRLTRELLELVKKNLDKGFVSLAEAALETVEEALRDPATREAYVANARGALETLKANIEEEADE
B21: GBRAP_125_3027 (protein)
chain: SMEETAANLAKIARALGFSEGDVAELVANALAHGIKGAMIALALALGDEELADLLERLTEEEVARVVAEAAAEIEANPDLTPEEVKALLLELARRAVAES
B22: GBRAP_125_3133 (protein)
chain: MTEEILEDLAIVARALGFSDDDVEEAVEIARKHGVKGTLYAIMLALGYEEVADLVEKITEEEAIEVLREVAARIREDPSLTPEEVVALIKELLKEKIAKK
B23: GBRAP_160_4072 (protein)
chain: SESLEKLKKKVKELAEEAKELIEGQSPEERLVIVEVMLGEIVLEAESNEEVSDELEDKIAEIADETVAKVRANPEMSEEELKELIEETEEKILKLIEEEE
B24: GBRAP_39_5718 (protein)
chain: EEEEEAEEIFSYYEARGAKLMYERGISLEEAYEELYAKALEIAKDDPELKAALEELKELAEKAGDEAKLAATGLMEDLVNGEDKEEILEDGKLLIKYLKS
B25: GBRAP_128_3294 (protein)
chain: SAEELRREYEERLRSLLGLSPEELREATLELIREAAKEGLEAVELFVEALEELLPEFSVEQLEAIAEALREARKEVDPETAALLADAESAALLEAEEKEE
B26: GBRAP_160_4253 (protein)
chain: SEKLKEIAEELREEVEETLAELPNLTPEELAAALAGEVGAAIMELIELGLVTDEQEDELIALEDEMVAVALNRPNLTIEEVKARIRALVDEIVAVLEKAA
B27: GBRAP_160_4706 (protein)
chain: SEVAEELIEYVDEEFERLKEEIVGESAEQRATLARGAFGEIIMELVENPEVSDELEDEVDEIGDELVATILANPDLTDEEVRALIDEAREKIKEAIKKKV
B28: GBRAP_80_6766 (protein)
chain: MEELARAVEEIAEAGPEEVPELIERARELLLKAGVSEEDAERFAEALRTIAEARPVIGEEEFRRRLAEVREEILAGDLEGAIAEAEVAAGEALLEKEEKE
B29: GBRAP_53_6386 (protein)
chain: KEEEIEKLIKEYRELLKKIEKAKPEEAVKLGKEAKEVLVELAKLGAPEEVLEELTKEFAKLVKKHPELEPIALELAKELAALGYENASGILAEELVEELE

These binders were tested against GABARAP, O95166 (assay: median log2 fold change of GCK-ALFA target abundance (FLAG IP / Myc IP barcode read proportion) (log2 ratio); each designed protein is fused to an ALFA-tag nanobody in HEK293 cells to bring the named protein to FLAG-tagged glucokinase (GCK); Myc marks an untargeted standard; higher = target protein stabilised (more abundant)). Details: target protein: 3xFLAG-MCP-GCK-ALFA reporter; HEK293 landing pad (RPLP).
GABARAP, O95166, sequence (O95166 whole entry, the tested form may be a part): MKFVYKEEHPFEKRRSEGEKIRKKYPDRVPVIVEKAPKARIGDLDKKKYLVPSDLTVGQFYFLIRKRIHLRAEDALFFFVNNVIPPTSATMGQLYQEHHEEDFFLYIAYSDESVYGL
Procedure, shortened: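 Sequencing of reverse-transcribed, amplified circular RNA barcodes from anti-FLAG and anti-Myc immunoprecipitates provided the readout for an ALFA-nanobody-fused binder library recombined into HEK293 landing-pad cells. Those cells were induced with 2 μg mL^−1 doxycycline, transfected with a plasmid expressing a FLAG-tagged target and a Myc-tagged standard, and lysed after 48 h. Target abundance is the per-binder median log2 ratio of FLAG to Myc barcode read proportions. Only barcodes at a proportion of ≥10^−7 in both replicates and binders with ≥3 barcodes per replicate were kept, with a 10^−6 pseudocount added before the two replicates were pooled.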
In the case of B1, the “median log2 fold change” value is reported as 0.104. In the case of B2, the “median log2 fold change” value is reported as 0.418. In the case of B3, the “median log2 fold change” value is reported as 0.286. B4 was tested, and the “median log2 fold change” value was 0.283. For B5, the “median log2 fold change” value was 0.308. B6 was tested, and the “median log2 fold change” value was 0.243. With B7 the “median log2 fold change” value was 0.102. B8 was tested, and the “median log2 fold change” value was 0.0502. For B9, the “median log2 fold change” value was 0.0306. For B10, the “median log2 fold change” value was 0.127. For B11, the “median log2 fold change” value was -0.882. With B12 the “median log2 fold change” value was 0.245. B13 was tested, and the “median log2 fold change” value was -0.0648. For B14, the “median log2 fold change” value was 0.0872. B15 was tested, and the “median log2 fold change” value was 0.0649. In the case of B16, the “median log2 fold change” value is reported as 0.199. B17 was tested, and the “median log2 fold change” value was 0.193. For B18, the “median log2 fold change” value was 0.207. With B19 the “median log2 fold change” value was 0.383. In the case of B20, the “median log2 fold change” value is reported as 0.347. For B21, the “median log2 fold change” value was 0.134. For B22, the “median log2 fold change” value was -0.744. With B23 the “median log2 fold change” value was 0.193. B24 was tested, and the “median log2 fold change” value was 0.108. In the case of B25, the “median log2 fold change” value is reported as 0.0897. For B26, the “median log2 fold change” value was -0.073. For B27, the “median log2 fold change” value was -0.293. B28 was tested, and the “median log2 fold change” value was 0.155. In the case of B29, the “median log2 fold change” value is reported as 0.205.
